Among all 360,000 compounds or so, about 17,000 (4.7%) were called active. The inconclusive results got no clear call from the source; some entries with a clear call stand among them for comparison. Cut-off read from the data, not from the text of the source: active = activity change below about -50%; inconclusive = mostly about -30% to -49%; inactive = weaker than that.
Assay: qHTS for Inhibitors of Inflammasome Signaling: IL-1-beta AlphaLISA Primary Screen
Conditions: THP-1 LPS/ATP IL-1B secretion, 16 h; at 57.5 µM, active compounds read low
Method in brief: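 Secreted IL-1B measured by AlphaLISA bead assay after 16 h compound exposure of THP-1 cells; compounds (final up to 57.5 uM) added 1 h before LPS (250 ng/mL) and ATP (1.25 mM) stimulation; lower signal means less secretion.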
% is set by controls: 0 for no effect and ±100 for the full control effect.

SMILES	activity change
C=CCC[C@@H](CCCCC)OC(=O)/C=C/[C@@H](O)[C@H](O)C[C@H](O)CC=C	inconclusive: -36.8%
Cc1ccc(C2=NN(CCC#N)C(=O)CO2)cc1	inconclusive: -39.6%
COc1ccc(C(=O)NC2(C(F)(F)F)C(=O)N(Cc3ccco3)C3=C2C(=O)CC(C)(C)C3)cc1OC (configuration not stated)	inconclusive: -32.4%
Cc1sc(NC(=O)c2ccccc2)c(C(c2ccc(Cl)cc2)N2CCN(CCO)CC2)c1C (configuration not stated)	active: -65.6%
COc1ccc2nc(NC(=O)CS(=O)(=O)Cc3ccccc3)sc2c1	inconclusive: -45.3%
NNC(=O)c1csc(COc2cc(Cl)cc(Cl)c2)n1	inconclusive: -43.1%
CC(=O)CC1c2cc(F)ccc2C=C(c2ccsc2)N1c1ccc(-c2ccc(C(N)=O)cc2)cc1 (configuration not stated)	inactive: -2.93%
Nc1nc(-c2ccc(Cl)cc2)c(S(=O)(=O)c2ccccc2)s1	inconclusive: -35.1%
CCn1cc(C(=O)NCc2ccncc2)c(=O)c2cc(F)c(N3CCN(C(=O)c4ccco4)CC3)cc21	inconclusive: -31.3%
C=C(C)COc1ccc(-c2nc(N)ncc2Oc2ccccc2OC)c(O)c1	active: -61.6%
O=c1[nH]c(C2CCN(S(=O)(=O)c3ccc(C(F)(F)F)cc3)CC2)nc2c1nnn2Cc1cccc(F)c1	inconclusive: -42%
Cc1onc(-c2ccccc2Cl)c1C(=O)OCn1nnc2ccccc2c1=O	inconclusive: -43.3%
CC(Oc1ccccc1)C(=O)N1CCN(c2ccc(N3CCOCC3)nn2)CC1 (configuration not stated)	inactive: 8.72%
Cc1ccc2cc3cc(C(=O)N4CCCCC4C)oc3nc2c1 (configuration not stated)	active: -77.5%
COc1ccccc1C(=O)N/C(=C\c1cn(S(=O)(=O)N(C)C)c2ccccc12)C(=O)N1CCN(C)CC1	inconclusive: -37.4%
COc1ccc(CCN(C)CC(=O)Nc2cc(C)nc3ccccc23)cc1OC	inactive: 29.8%
CC1CCCN(CCCN2C(=O)C3C(C(=O)Nc4ccc(Cl)cc4)C4C=CC3(O4)C2C(=O)NC2CCCCC2)C1 (configuration not stated)	inconclusive: -32.6%
Cc1cccc(C(=O)NC(=S)Nc2ccc(Cc3ccncc3)cc2)c1	inconclusive: -31.8%
CN(C)C(CNC(=O)c1cnc(Cl)c(Cl)c1)c1ccccc1 (configuration not stated)	inconclusive: -40.7%
COc1ccc(S(=O)(=O)N2CCOCC2)cc1NC(=O)CSc1nnnn1C1CC1	inactive: -2.31%
N/C(=N\OC(=O)c1ccc([N+](=O)[O-])cc1)c1cccnc1	inactive: -3.63%
CC1(C)CC(=O)C/C(=N\NC(=O)CCc2ccc(S(=O)(=O)N3CCOCC3)cc2)C1	inactive: 1.05%
